Test results published in the supplement of paper PMC3334620.
In all, about 33,000 sequences were measured (“E-score (-0.5 to 0.5)”: median about -0.036, highest 2% from about 0.37 on). This is one part of the list.

biological target: T1, Yer064c (UniProt P40041); assay: PBM E-score (8-mer binding enrichment) (E-score (-0.5 to 0.5)); higher = stronger / more preferred TF binding; most listed sequences are background and not binding sites; conditions: protein concentration: 200 nM; construct: GST-full length
T1 sequence: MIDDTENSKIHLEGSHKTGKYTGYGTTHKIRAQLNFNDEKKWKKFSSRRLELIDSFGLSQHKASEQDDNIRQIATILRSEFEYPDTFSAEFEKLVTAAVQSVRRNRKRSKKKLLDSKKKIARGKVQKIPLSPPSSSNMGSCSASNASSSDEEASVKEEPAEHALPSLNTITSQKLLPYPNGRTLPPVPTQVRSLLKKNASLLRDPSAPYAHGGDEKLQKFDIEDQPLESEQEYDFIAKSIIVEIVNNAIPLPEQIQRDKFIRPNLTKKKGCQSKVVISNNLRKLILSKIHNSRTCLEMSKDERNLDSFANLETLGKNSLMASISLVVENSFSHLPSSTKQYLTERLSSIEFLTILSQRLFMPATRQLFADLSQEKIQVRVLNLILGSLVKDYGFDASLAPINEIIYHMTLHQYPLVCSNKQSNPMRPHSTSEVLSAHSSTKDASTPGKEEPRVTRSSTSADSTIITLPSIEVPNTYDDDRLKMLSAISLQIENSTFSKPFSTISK
Method in brief: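 E-scores (a modified Wilcoxon-Mann-Whitney statistic) were assigned by the Universal PBM Analysis Suite to every ungapped eight-base word pooled with its reverse complement. The input came from universal all-10-mer Agilent arrays made double-stranded by primer extension and probed with GST-tagged yeast transcription factors at about 100-200 nM. Fluorescent anti-GST detected bound protein, and masliner normalised the scans.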

| Sequence | PBM E-score |
| --- | --- |
| CTCGTGTC | -0.101 |
| CTACTTTA | 0.11 |
| AACGGTAC | -0.0255 |
| GCCTCAGC | -0.208 |
| AATTATGC | -0.201 |
| CCGCCCGG | -0.102 |
| GAGCAGTA | 0.0759 |
| CATCTATA | 0.0896 |
| CTCTGAAA | -0.0288 |
| ATTAAGCC | 0.134 |
| AGCGACCA | -0.173 |
| ACTAGGAA | 0.188 |
| CGTTAGTC | 0.45 |
| ATCTCCCG | 0.0174 |
| AATTAGGT | 0.101 |
| CGGACGTA | -0.252 |
| ATCGAATC | 0.193 |
| GCAAATGC | -0.176 |
| CCGCCGAC | -0.0848 |
| ATGGCTAA | 0.363 |
| ATAGCTAA | -0.0482 |
| AAACGCGG | -0.199 |

| Sequence | PBM E-score |
| --- | --- |
| GTTCACGA | 0.0352 |
| GGATGTAC | -0.226 |
| AAGATTCT | 0.0986 |
| CAGTTCTA | 0.0455 |
| CTCTACAG | 0.0458 |
| CATCCTCA | 0.0944 |
| AATTTAAG | 0.119 |
| AATTCCAG | -0.229 |
| CAGTGATA | -0.0553 |
| AAAAGCTT | -0.12 |
| CAGTACAA | 0.0589 |
| ACATGTCC | -0.0827 |
| AATCTCAC | 0.172 |
| GTACGGGA | -0.292 |
| ATTTCAAG | 0.0642 |
| CCATTGGG | -0.156 |
| GGCAGTAC | -0.0278 |
| GCGCATCC | -0.153 |
| GTATACAA | 0.00051 |
| GCCGGTAC | -0.137 |
| AAGAGAGA | -0.0328 |
| AATGGGTG | -0.0447 |

| Sequence | PBM E-score |
| --- | --- |
| ATCTATGG | -0.026 |
| GGGGAGTA | -0.0831 |
| ATACTTGG | -0.0981 |
| ACGAGACA | 0.12 |
| GTGTCAAA | 0.17 |
| AAAGGCCG | -0.299 |
| AAAACCAA | 0.0692 |
| ATTCACTC | 0.0742 |
| CATTAACC | 0.165 |
| ATCAGTCG | 0.296 |
| ATGAATTA | 0.0557 |
| CCTACGTC | -0.289 |
| ACTGTTCT | 0.0772 |
| CATTCCCG | -0.0184 |
| AGCGAAAT | -0.103 |
| GCGAAAGA | -0.0175 |
| GAATACAA | 0.0429 |
| CGTTGCGC | -0.22 |
| GACAAAAA | 0.09 |
| CGAAGGTC | -0.155 |
| ATCGGGGG | -0.0226 |
| ATTGGCTC | 0.101 |

| Sequence | PBM E-score |
| --- | --- |
| ACGCCCTC | -0.228 |
| GACGACCA | -0.102 |
| AATCAGCA | 0.362 |
| ACAACATA | -0.131 |
| AGGAAACA | -0.0568 |
| ACCAACGC | -0.119 |
| AATTCGCG | -0.0781 |
| AGGATAAA | -0.0251 |
| ATTGTTAG | 0.115 |
| GTATTCTA | -0.077 |
| CTGATGGC | -0.0841 |
| TAGCTCGA | -0.203 |
| AATTTGTA | 0.121 |
| CCTTCTGC | -0.292 |
| ACCTGCGA | -0.0233 |
| ATAGTTCC | -0.139 |
| AACTAACT | 0.133 |
| CCGGCCTC | -0.305 |
| CATCTCGA | -0.108 |
| GCCGGTAA | 0.0549 |
| TCAAAAGA | 0.199 |
| CAAATTCG | 0.00421 |

| Sequence | PBM E-score |
| --- | --- |
| GCAGAACC | -0.118 |
| CCATCACG | 0.0985 |
| AGACTTGG | -0.0468 |
| ACACGACC | -0.0158 |
| GTAGTGCA | 0.0353 |
| CTGTCAAC | -0.106 |
| GAACTGTA | 0.148 |
| CTGCTCAC | -0.143 |
| CAAATAGG | -0.0801 |
| GGCATCAA | -0.18 |
| CAGTTTAG | 0.00262 |
| CGGGATGA | 0.166 |
| CAAACCTC | -0.233 |
| CGTCCTGA | -0.0984 |
| CCCTCGTC | -0.268 |
| CTCAAAAC | 0.071 |
| GAATCTTA | 0.305 |
| ATAAGTGC | -0.158 |
| CAAAACCA | 0.0659 |
| GTCTCAAA | 0.175 |
| AAAACCTG | -0.0382 |
